Laboratory results from patent publication US20150210767A1 (GlaxoSmithKline, published 2015).

T1: biotinylated recombinant human soluble TNFR1 (human, UniProt P19438 30-211, biotinylated (EZ-Link Sulfo-NHS-LC-Biotin), sites not stated)
T1 construct: extracellular domain; Captured on a streptavidin BIAcore chip; also called human sTNFR1; sTNFR1
T1 sequence (looked up): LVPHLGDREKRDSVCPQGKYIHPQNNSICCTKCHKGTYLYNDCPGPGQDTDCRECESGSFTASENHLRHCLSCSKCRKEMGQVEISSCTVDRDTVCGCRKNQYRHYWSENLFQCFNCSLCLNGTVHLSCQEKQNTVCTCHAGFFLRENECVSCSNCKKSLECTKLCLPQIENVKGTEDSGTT

T2: human TNFR1 on human umbilical vein endothelial cells (HUVECs) (human, UniProt P19438 30-455)
T2 sequence (looked up): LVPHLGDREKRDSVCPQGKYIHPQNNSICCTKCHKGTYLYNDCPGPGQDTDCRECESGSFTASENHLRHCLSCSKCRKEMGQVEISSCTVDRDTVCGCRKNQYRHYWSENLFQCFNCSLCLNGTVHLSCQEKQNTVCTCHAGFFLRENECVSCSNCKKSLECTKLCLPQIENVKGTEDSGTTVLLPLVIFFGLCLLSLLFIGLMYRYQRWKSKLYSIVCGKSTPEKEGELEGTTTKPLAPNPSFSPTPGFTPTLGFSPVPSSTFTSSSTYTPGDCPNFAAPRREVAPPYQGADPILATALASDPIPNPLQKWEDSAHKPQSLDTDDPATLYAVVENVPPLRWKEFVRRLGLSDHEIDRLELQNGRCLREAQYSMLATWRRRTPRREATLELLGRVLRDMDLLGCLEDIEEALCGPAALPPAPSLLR


Assays:
[1] = target: T1, biotinylated recombinant human soluble …; assay: BIAcore (SPR), biotinylated human TNFR1 on streptavidin chip, fusion injected, mean of two experiments ± SD
Description: The affinity of the anti-TNFR1/AlbudAb fusions for human TNFR1 was determined by BIAcore. Briefly, the anti-TNFR1 molecules were injected over a streptavidin BIAcore chip on which biotinylated, human TNFR1 had been immobilised. Association and dissociation were determined at different concentrations of injected anti-TNFR1. […] The affinity for human TNFR1 as determined by BIAcore of the anti-TNFR1/AlbudAb fusion is slightly higher to that determined for the single anti-TNFR1 dAb used in each of the combination constructs.
The binding affinities for binding to recombinant human TNFR1 were assessed by BIAcore™ analysis. Analysis was carried out using Streptavidin coated (SA) chips (BIAcore, cat no. BR-1000-32). An SA chip was coated at low density using biotinylated hTNFR1. Examined molecules were injected over this surface at […] concentrations, i.e. 32, 16 (twice), 8, 4, 2, 1 and 0.5 nM, in random order using a flow rate of 50 μl/min. Between individual injections the surface was regenerated back to baseline using 10 mM glycine pH 2.0. Data were corrected for instrument artefacts using double referencing. Experiments were carried out on a BIAcore™ 3000 machine and data were analysed using the BIAevaluation software version 4.1, kₒₙ and koff were simultaneously fitted using 1:1 Langmuir binding model. […] All KD values were calculated from kₒₙ and koff rates. […]

[2] = target: T2, human TNFR1 on human umbilical vein …; assay: cell-based or functional assay
[3] = target: T1, biotinylated recombinant human soluble …; assay: BIAcore (SPR), biotinylated human sTNFR1 on SA chip, dAb injected
Description: (§1) To confirm the increase in accelerated stability four novel dAbs were also characterised according to the more extensive protocol described in example 1. In this protocol, the dAbs are incubated up to 48 h at 40° C., centrifuged and the remaining dAb in solution quantified using OD₂₈₀. […] To verify that the increase in stability is not at the expense of functional anti-TNFR1 activity of the dAb, the binding affinity to TNFR1 of the dAbs was determined by BIAcore, using biotinylated TNFR1 captured on a BIAcore SA chip. […] Therefore, these dAbs combine an increase in accelerated stability without compromising much on the affinity of the dAb for TNFR1.
TABLE 7 Accelerated stability and affinity for human sTNFR1 for novel anti-TNFR1 dAbs. Purified dAb was incubated at 1 mg/ml in PBS at 40° C. for the indicated amounts of time. After that time, the percentage of residual protein in solution was determined by OD280 determination. Affinity for sTNFR1 was determined by BIAcore using coated sTNFR1 and injecting the dAb as described.

[4] = target: T1, biotinylated recombinant human soluble …; assay: BIAcore (SPR), biotinylated TNFR1 on SA chip; reference value of DOM1h-574-156 (150 pM) described previously
Description: as §1

Kd [1] [nM]	Mean EC50, inhibition of TNF-alpha-induced VCAM-1 expression in the HUVEC cell assay [2] [nM]	Kd [3] [nM]	fold change of affinity against the parent dAb DOM1h-574-156 [4] [fold]	Binder
0.163	3.58			DMS5541 (bispecific antibody, Single-chain genetic fusion of the anti-TNFR1 VH dAb DOM1h-574-208, linker AST and the anti-serum albumin Vk dAb DOM7h-11-3; also called DOM1h-574-208 - Ala-Ser-Thr - DOM7h-11-3; anti-TNFR1/AlbudAb fusion) EVQLLESGGGLVQPGGSLRLSCAASGFTFDKYSMGWVRQAPGKGLEWVSQISDTADRTYYAH[about 20 residues left out here]MNSLRAEDTAVYYCAIYTGRWVPFEYWGQGTLVTVSSASTDIQMTQSPSSLSASVGDRVTITCRASRPIGTTLSWYQQKPGKAPKLLILWNSRLQSGVPSRFSGSGSGTDFTLTISSLQPEDFATYYCAQAGTHPTTFGQGTKVEIKR
		0.27	≤ 4	DOM1h-574-208 (VHH, Human VH immunoglobulin single variable domain (dAb), not camelid; Monomer cloned in pDOM13 for expression in E. coli; also called anti-TNFR1 dAb DOM1h-574-208) VHH: EVQLLESGGGLVQPGGSLRLSCAASGFTFDKYSMGWVRQAPGKGLEWVSQISDTADRTYYAH[about 20 residues left out here]MNSLRAEDTAVYYCAIYTGRWVPFEYWGQGTLVTVSS
